Molecular target: His peptide-tagged soluble cynoADAM9 (cynomolgus monkey)
Assay: ELISA (abs at 450 nm): His-tagged soluble cynoADAM9 (0.5 µg/mL) captured by plate-coated anti-His antibody, serial dilutions of antibody

B1: hMAB-A (2I.2)(C) (antibody)
heavy: EVQLVESGGGLVKPGGSLRLSCAASGFTFSSYWMHWVRQAPGKGLEWVGEIIPIFGHTNYNEKFKSRFTISLDNSKNTLYLQMGSLRAEDTAVYYCARGGYYYYPRQGFLDYWGQGTTVTVSSASTKGPSVFPLAPSSKSTSGGTAALGCLVKDYFPEPVTVSWNSGALTSGVHTFPAVLQSSGLYSLSSVVTVPSSSLGTQTYICNVNHKPSNTKVDKRV[human IgG1 Fc with changes not given here]
light: DIVMTQSPDSLAVSLGERATISCKASQSVDYSGDSYMNWYQQKPGQPPKLLIYAASDLESGIPARFSGSGSGTDFTLTISSLEPEDFATYYCQQSHEDPFTFGQGTKLEIKRTVAAPSVFIFPPSDEQLKSGTASVVCLLNNFYPREAKVQWKVDNALQSGNSQESVTEQDSKDSTYSLSSTLTLSKADYEKHKVYACEVTHQGLSSPVTKSFNRGEC
  EC50 (read off the curve): 9 ng/mL
